Measurements from patent US11178870B2 (priority 2017, dated 2021).

Tests used:
[1] = system: Phytophthora infestans; assay type: in vivo; conditions: Table 7, Test F
[2] = system: Colletotrichum orbiculare; conditions: 250 ppm sprayed (2.5 ml/pot) before inoculation; assessed 6 to 10 days after inoculation
[3] = system: Magnaporthe grisea; assay type: in vivo; conditions: Table 7, Test A

SMILES	control value, Test F (late blight on tomato) [1]	control value, Test H (anthracnose on cucumber) [2]	control value, Test A (blast on rice) [3]
O=c1ccc(-c2ccsc2Br)c(-c2c(F)cccc2F)n1CC(F)F [Compound 323]	H (H shows the control value more than 50%)	H (H shows the control value more than 50%)	
CCn1c(-c2ccccc2Cl)c(-n2cc(F)cn2)cc(Cl)c1=O [Compound 351]	L (L shows the control value of 50% or less)	H (H shows the control value more than 50%)	H (H shows the control value more than 50%)
CCn1c(-c2ccc(F)cc2Br)c(-n2cc(F)cn2)cc(Br)c1=O [Compound 353]	L (L shows the control value of 50% or less)	H (H shows the control value more than 50%)	H (H shows the control value more than 50%)
CCn1c(-c2ccc(OC)cc2Cl)c(-n2cc(F)cn2)cc(Cl)c1=O [Compound 361]	L (L shows the control value of 50% or less)	H (H shows the control value more than 50%)	H (H shows the control value more than 50%)
CCn1c(-c2ccccc2Br)c(-n2cc(F)cn2)ccc1=O [Compound 356]	L (L shows the control value of 50% or less)	L (L shows the control value of 50% or less)	L (L shows the control value of 50% or less)
CCn1c(-c2ccc(F)cc2C)c(-n2ncc(C)c2Cl)cc(Br)c1=O [Compound 371]	L (L shows the control value of 50% or less)	H (H shows the control value more than 50%)	H (H shows the control value more than 50%)
CCn1c(-c2ccc(F)cc2C)c(-n2ncc(C)c2Cl)cc(Cl)c1=O [Compound 369]	L (L shows the control value of 50% or less)	H (H shows the control value more than 50%)	H (H shows the control value more than 50%)
CCn1c(-c2ccc(F)cc2Br)c(-n2cc(F)cn2)cc(Cl)c1=O [Compound 352]	L (L shows the control value of 50% or less)	H (H shows the control value more than 50%)	H (H shows the control value more than 50%)
